Laboratory results from the supplement of paper PMC4723716.
± gives the uncertainty stated by the source. In all, about 9,900 compounds were measured (“viability index relative to DMSO control”: median about 1, lowest 2% from about 0.85 on). Some of the results follow.

Test system: Plasmodium falciparum NF54 stage V gametocytes
Experiment: viability index relative to DMSO control (fraction); higher = less gametocyte killing
Conditions: 2.5 µM, incubation time: 72 h
Outline: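 In 1,536-well plates, 10 µl of serum-free medium holding P. falciparum NF54 stage V gametocytes (0.75% gametocytemia, 1.25% hematocrit) received compound at 2.5 µM for 72 hr at 37°C in low oxygen. After one to two hours with 3 µl of 2.5 µM MitoTracker Red CMXRos containing 0.13% saponin, red particles of 20–70 µm2 were counted in a single field per well. Viability index is reported as the particle count over the plate mean of wells treated with solvent only.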

[1] = library set: Broad Institute DOS

| Structure (SMILES) | viability index [1] | viability index (library set: Broad Institute Blood Stage) |
| --- | --- | --- |
| CO[C@@H](CN(C)C(=O)C1CCOCC1)[C@H](C)CN(C(=O)Nc1ccc(C(F)(F)F)cc1)[C@@H](C)CO | 1.06 ± 0.085 |  |
| CC(C)NC(=O)N1CC(=O)N2[C@H](C1)[C@@H](c1ccc(/C=C/c3ccccc3)cc1)[C@@H]2CO | 1.12 ± 0.00062 |  |
| C[C@@H]1CN([C@@H](C)CO)C(=O)c2cc(NS(=O)(=O)c3ccccc3)ccc2O[C@@H](C)CCCCO[C@@H]1CN(C)C(=O)C1CCCCC1 | 1.11 ± 0.056 |  |
| CO[C@H](CN(C)Cc1nccs1)[C@H](C)CN([C@H](C)CO)S(=O)(=O)c1ccc(F)cc1 | 1.03 ± 0.0069 |  |
| C[C@H](NC(=O)C[C@H]1CC[C@@H]2[C@@H](COc3ccc(NC(=O)C4CCOCC4)cc3C(=O)N2C)O1)c1ccccc1 | 1.13 ± 0.19 |  |
| O=C(C[C@H]1C[C@@H]2c3cc(NC(=O)c4ccc5c(c4)OCO5)ccc3O[C@@H]2[C@@H](CO)O1)NCCN1CCCCC1 | 1.06 ± 0.078 |  |
| C[C@H](CO)N1C[C@H](C)[C@@H](CN(C)S(=O)(=O)c2cn(C)cn2)Oc2cc(C#Cc3cccc(F)c3)ccc2S1(=O)=O | 1.05 ± 0.09 |  |
| CC(C)CC#Cc1ccc([C@@H]2[C@H]3CN(C(=O)Nc4ccccc4)CCCCN3[C@H]2CO)cc1 | 0.542 ± 0.086 |  |
| C[C@@H](NC(=O)C[C@H]1C=C[C@H](NC(=O)c2cccnc2)[C@@H](CO)O1)c1ccccc1 | 0.909 ± 0.047 |  |
| CN1C(=O)c2cc(NC(=O)c3ccc(F)c(F)c3)ccc2OC[C@@H]2O[C@@H](CC(=O)N3CCCCC3)CC[C@H]21 | 0.912 ± 0.078 |  |
| CO[C@@H]1CN(C)C(=O)c2ccc(NC(=O)CN(C)C)cc2OC[C@@H](C)N(C(=O)C2CCCCC2)C[C@H]1C | 1.092 ± 0.0038 |  |
| CN1C(=O)c2cc(NC(=O)Cc3cccs3)ccc2OC[C@H]2O[C@@H](CC(=O)N[C@H]3CCN(Cc4ccccc4)C3)CC[C@@H]21 | 1.11 ± 0.072 |  |
| O=C(c1ccncc1)N1C[C@@H]2[C@H](c3ccccc31)[C@H](CO)N2C(=O)CN1CCOCC1 | 1.07 ± 0.073 |  |
| CO[C@H]1CC[C@H]2CCOc3c(C#N)cccc3C(=O)N(C)C[C@@H](OC)[C@H](C)C(=O)N(C)C[C@H]1O2 | 1.1 ± 0.016 |  |
| COc1ccc(CN2C[C@H](O)COC[C@@H]3O[C@@H](CC(=O)N(C)C)CC[C@H]32)cc1 | 1.048 ± 0.0099 |  |
| COc1ccc(NC(=O)N(C)C[C@@H]2Oc3c(NC(=O)CCCCCC(=O)Nc4ccccc4N)cccc3C(=O)N([C@@H](C)CO)C[C@@H]2C)cc1 | 0.943 ± 0.058 |  |
| Cc1ccccc1S(=O)(=O)N1CC[C@@H]2[C@H]1c1cc(-c3cccc(F)c3)ccc1N(C)[C@H]2CO | 0.938 ± 0.1 |  |
| CNC[C@H]1Oc2ccc(NS(=O)(=O)c3ccc(OC)cc3)cc2C(=O)N([C@@H](C)CO)C[C@@H]1C | 1.01 ± 0.011 |  |
| COc1ccc(S(=O)(=O)Nc2ccc3c(c2)OC[C@@H](C)NC[C@H](C)[C@H](OC)CN(C)C3=O)cc1 | 1.013 ± 0.0035 |  |
| C[C@H]1CCCCO[C@H](CN(C)Cc2ccncc2)[C@@H](C)CN([C@@H](C)CO)C(=O)c2cc(NC(=O)Cc3ccccc3)ccc2O1 | 1.12 ± 0.013 |  |
| O=C(C1CCCCC1)N1CC(=O)N2[C@H](C1)[C@@H](c1ccc(-c3ccccc3F)cc1)[C@@H]2CO | 1.01 ± 0.092 |  |
| CCC(=O)Nc1ccc2c(c1)C(=O)N(C)C[C@@H](OC)[C@@H](C)CN(C(=O)Cc1cccnc1)[C@@H](C)CO2 | 1.04 ± 0.045 |  |

| Structure (SMILES) | viability index [1] | viability index (library set: Broad Institute Blood Stage) |
| --- | --- | --- |
| CN1C(=O)c2cc(NC(=O)c3cccc(C(F)(F)F)c3)ccc2OC[C@@H]2O[C@H](CC(=O)NCCN3CCCC3)CC[C@@H]21 | 1.09 ± 0.12 |  |
| COc1ccccc1S(=O)(=O)N1CC[C@@H]2[C@H]1c1cc(-c3ccc(C#N)cc3)ccc1N[C@@H]2CO | 1 ± 0.15 |  |
| CO[C@@H]1CN(C)C(=O)c2cc(NC(=O)C3CCCCC3)ccc2OC[C@H](C)N(C(=O)c2ccccc2)C[C@H]1C | 1.007 ± 0.0062 |  |
| O=C(C[C@H]1CC[C@H]2[C@@H](COC[C@@H](O)CN2Cc2nccs2)O1)NCc1ccccc1Cl | 1.1 ± 0.03 |  |
| COc1ccc2c3c([C@H](CO)N(C[C@]33CCN(CC3)C(=O)c3ccccn3)S(C)(=O)=O)n(C)c2c1 | 1.04 ± 0.0057 |  |
| C[C@@H]1C/C=C/C[C@@H](c2ccccc2)NC(=O)[C@@H](C)N(C)C(=O)c2ccccc2O1.C[C@@H]1C/C=C\C[C@@H](c2ccccc2)NC(=O)[C@@H](C)N(C)C(=O)c2ccccc2O1 | 1.04 ± 0.03 |  |
| C[C@H]1CN([C@@H](C)CO)C(=O)c2c(c3ccccc3n2C)-c2ccccc2CO[C@H]1CN(C)S(=O)(=O)c1ccc(C(F)(F)F)cc1 |  | 0.705 ± 0.04 |
| CO[C@@H]1CN(C)C(=O)c2cc(NC(=O)C3CCOCC3)ccc2OC[C@H](C)NC[C@@H]1C | 0.962 ± 0.028 |  |
| C[C@H]1CN([C@@H](C)CO)C(=O)CCCn2cc(nn2)CO[C@H]1CN(C)C(=O)Nc1ccc2c(c1)OCO2 | 1.06 ± 0.027 |  |
| CO[C@H]1CN(C)C(=O)c2ccc(NC(=O)C3CC3)cc2OC[C@@H](C)N(C(C)=O)C[C@H]1C | 1.1 ± 0.026 |  |
| O=C(c1cc2c(c(-c3cccc(Br)c3)n1)[C@@H](CCO)NC2)N1CCCCC1 | 0.988 ± 0.038 |  |
| COc1ccccc1-c1cn(CC[C@@H]2CC[C@@H](NC(=O)C3CCCCC3)[C@@H](CO)O2)nn1 | 1.04 ± 0.077 |  |
| C[C@H]1CCCCO[C@H](CN(C)C(=O)Cc2ccccc2)[C@@H](C)CN([C@@H](C)CO)C(=O)c2cc(NS(C)(=O)=O)ccc2O1 | 0.997 ± 0.015 |  |
| C[C@H](CO)N1C[C@H](C)[C@@H](CN(C)CC2CCCCC2)Oc2ccc(N(C)C)cc2C1=O | 0.995 ± 0.15 |  |
| CN(C)C(=O)c1cccc(-c2ccc([C@@H]3[C@H]4CNC[C@@H]3N4Cc3ccc4c(c3)OCO4)cc2)c1 | 1.023 ± 0.0077 |  |
| C[C@H]1CCCCO[C@@H](CN(C)C(=O)NC2CCCCC2)[C@@H](C)CN([C@@H](C)CO)C(=O)c2cc(N(C)C)ccc2O1 | 1.17 ± 0.036 |  |
| Cc1ccc(NC(=O)C[C@H]2CC[C@H]3[C@@H](COc4ccc(NC(=O)c5ccc(F)cc5)cc4C(=O)N3C)O2)cc1 | 1.17 ± 0.17 |  |
| COc1ccccc1CNC(=O)C[C@H]1C=C[C@H](NC(=O)CC2CC2)[C@@H](CO)O1 | 1.06 ± 0.12 |  |
| COc1ccc2c3c([C@@H](CO)N(C[C@]33CCN(CC3)C(=O)Nc3ccccc3F)C(C)=O)n(C)c2c1 | 1.03 ± 0.042 |  |
| COc1ccccc1CN1CC[C@@H]2[C@H]1c1cc(-c3cccc(C(=O)N(C)C)c3)ccc1N[C@@H]2CO | 1.09 ± 0.028 |  |
| CNC[C@H]1OCCCC[C@H](C)Oc2ccc(N)cc2C(=O)N([C@H](C)CO)C[C@@H]1C | 1.122 ± 0.0028 |  |
